# Measured values taken from patent US20230301999A1, “METHODS OF TREATING GOUT” (Horizon Therapeutics USA, Inc., priority 2020, published 2023).
# Test system: adult patients with uncontrolled gout
# Test: Open-label study of pegloticase with MTX: serum uric acid observed values and change from baseline
# Format: in vivo, human
# Text: KXX treatment typically is monitored using regular determination of the patient's SUA levels. A reduction in the serum uric acid level relative to the SUA in the patient before KXX treatment may generally be indicative of successful treatment with KXX, alone, or co-administered with an immunosuppressive agent or therapy, such as MTX, as described herein. Collection and measurement of a patient's serum uric acid levels are known to those of skill in the art. In some embodiments, the patient's serum uric acid levels are assayed before each KXX therapy. In some embodiments, any suitable method for collecting appropriate samples and methods of measuring or quantifying uric acid levels may be used in accordance with the disclosure.
# Criteria for Evaluation: Efficacy was assessed by SUA levels, tender and swollen joint counts, patient and physician global assessments of gout, joint pain, and DECT.
# Patients were administered oral MTX (15 mg/week) and folate (1 mg/day) 4 weeks prior to the first pegloticase infusion (Day 1) and throughout the pegloticase treatment period. Blood was drawn prior to each infusion to measure sUA level, monitor clinical parameters, and examine for ADA development. All patients followed typical IR prophylaxis protocols (fexofenadine one day before and the morning of each infusion and acetaminophen and IV corticosteroid the morning of each infusion). […] The primary study outcome was the proportion of responders, defined as sUA<6 mg/dL for at least 80% of the time during month 6 (weeks 20, 22, and 24). All analyses were performed on a modified intent-to-treat population, defined as patients who received ≥1 pegloticase infusion.
# [1] = End of Pegloticase Infusions Visit
# [2] = Month 6 sUA non-responders, Week 1, n=2
# [3] = Month 6 sUA non-responders, Week 2 - Post-Infusion, n=3
# [4] = Month 6 sUA non-responders, Week 4 - Post-Infusion, n=2
# [5] = Month 6 sUA non-responders, Week 6 - Post-Infusion, n=1
# [6] = Month 6 sUA non-responders, Week 8 - Post-Infusion, n=1
# [7] = Month 6 sUA non-responders, Week 8 - Pre-Infusion, n=1
# [8] = Month 6 sUA responders, Day 1 - Post-Infusion, n=8
# [9] = Month 6 sUA responders, End of Pegloticase Infusions Visit, n=2
# [10] = Month 6 sUA responders, Week 1, n=4
# [11] = Month 6 sUA responders, Week 2 - Post-Infusion, n=11
# [12] = Month 6 sUA responders, Week 2 - Pre-Infusion, n=11
# [13] = Month 6 sUA responders, Week 4 - Post-Infusion, n=11
# [14] = Month 6 sUA responders, Week 4 - Pre-Infusion, n=11
# [15] = Month 6 sUA responders, Week 6 - Post-Infusion, n=11
# [16] = Month 6 sUA responders, Week 6 - Pre-Infusion, n=11
# [17] = Month 6 sUA responders, Week 7, n=4
# [18] = Month 6 sUA responders, Week 8 - Post-Infusion, n=11
# [19] = Month 6 sUA responders, Week 10 - Post-Infusion, n=11
# [20] = Month 6 sUA responders, Week 10 - Pre-Infusion, n=11
# [21] = Month 6 sUA responders, Week 12 - Post-Infusion, n=10
# [22] = Month 6 sUA responders, Week 12 - Pre-Infusion, n=11
# [23] = Month 6 sUA responders, Week 14 - Post-Infusion, n=10
# [24] = Month 6 sUA responders, Week 14 - Pre-Infusion, n=11
# [25] = Month 6 sUA responders, Week 16 - Post-Infusion, n=11
# [26] = Month 6 sUA responders, Week 16 - Pre-Infusion, n=11
# [27] = Month 6 sUA responders, Week 18 - Post-Infusion, n=11
# [28] = Month 6 sUA responders, Week 18 - Pre-Infusion, n=11
# [29] = Month 6 sUA responders, Week 20 - Post-Infusion, n=11
# [30] = Month 6 sUA responders, Week 20 - Pre-Infusion, n=11
# [31] = Month 6 sUA responders, Week 22 - Post-Infusion, n=11
# [32] = Month 6 sUA responders, Week 22 - Pre-Infusion, n=11
# [33] = Month 6 sUA responders, Week 24 - Post-Infusion, n=5
# [34] = Month 6 sUA responders, Week 24 - Pre-Infusion, n=11
# [35] = Month 6 sUA responders, Week 26 - Pre-Infusion, n=8
# [36] = Month 6 sUA responders, Week 28 - Pre-Infusion, n=8
# [37] = Month 6 sUA responders, Week 30 - Pre-Infusion, n=8
# [38] = Month 6 sUA responders, Week 32 - Post-Infusion, n=8
# [39] = Month 6 sUA responders, Week 32 - Pre-Infusion, n=10
# [40] = Month 6 sUA responders, Week 34 - Post-Infusion, n=8
# [41] = Month 6 sUA responders, Week 34 - Pre-Infusion, n=10
# [42] = Month 6 sUA responders, Week 36 - Post-Infusion, n=6
# [43] = Month 6 sUA responders, Week 38 - Pre-Infusion, n=5
# [44] = Month 6 sUA responders, Week 40 - Pre-Infusion, n=3
# [45] = Month 6 sUA responders, Week 42 - Pre-Infusion, n=3
# [46] = Month 6 sUA responders, Week 44 - Pre-Infusion, n=3
substance,measurement,setting,value
pegloticase,"sUA < 6 mg/dL, %",Day 1 - Post-Infusion,(100%)
same,"sUA Change from Baseline, Mean",Day 1 - Post-Infusion,-7.29 mg/dL
same,"sUA observed, mean",Day 1 - Post-Infusion,1.18 mg/dL
same,"sUA observed, median",Day 1 - Post-Infusion,0.30 mg/dL
same,"sUA change from baseline, median",Early Termination Visit,-0.20 mg/dL
same,"sUA < 6 mg/dL, %",[1],(100%)
same,"sUA observed, mean",[1],0.30 mg/dL
same,"sUA observed, median",[1],0.30 mg/dL
same,"sUA < 6 mg/dL, %","Month 6 sUA non-responders, Day 1 - Post-Infusion, n=3",(100%)
same,"sUA change from baseline, median","Month 6 sUA non-responders, Early Termination Visit, n=3",-0.20 mg/dL
same,"sUA < 6 mg/dL, %",[2],(100%)
same,"sUA observed, mean",[2],0.30 mg/dL
same,"sUA observed, median",[2],0.30 mg/dL
same,"sUA < 6 mg/dL, %",[3],(100%)
same,"sUA observed, mean",[3],0.30 mg/dL
same,"sUA observed, median",[3],0.30 mg/dL
same,"sUA < 6 mg/dL, %",[4],(100%)
same,"sUA observed, mean",[4],0.30 mg/dL
same,"sUA observed, median",[4],0.30 mg/dL
same,"sUA < 6 mg/dL, %",[5],(100%)
same,"sUA observed, mean",[5],0.30 mg/dL
same,"sUA observed, median",[5],0.30 mg/dL
same,"sUA < 6 mg/dL, %","Month 6 sUA non-responders, Week 6 - Pre-Infusion, n=2",(50.0%)
same,"sUA < 6 mg/dL, %",[6],(100%)
same,"sUA observed, mean",[6],0.30 mg/dL
same,"sUA Change from Baseline, Mean",[7],-0.50 mg/dL
same,"sUA change from baseline, median",[7],-0.50 mg/dL
same,"sUA < 6 mg/dL, %",[8],(100%)
same,"sUA observed, median",[8],0.30 mg/dL
same,"sUA < 6 mg/dL, %",[9],(100%)
same,"sUA observed, mean",[9],0.30 mg/dL
same,"sUA observed, median",[9],0.30 mg/dL
same,"sUA < 6 mg/dL, %",[10],(100%)
same,"sUA observed, mean",[10],0.30 mg/dL
same,"sUA observed, median",[10],0.30 mg/dL
same,"sUA < 6 mg/dL, %",[11],(100%)
same,"sUA observed, mean",[11],0.30 mg/dL
same,"sUA observed, median",[11],0.30 mg/dL
same,"sUA < 6 mg/dL, %",[12],(100%)
same,"sUA observed, median",[12],0.30 mg/dL
same,"sUA < 6 mg/dL, %",[13],(100%)
same,"sUA observed, mean",[13],0.30 mg/dL
same,"sUA observed, median",[13],0.30 mg/dL
same,"sUA < 6 mg/dL, %",[14],(100%)
same,"sUA observed, median",[14],0.30 mg/dL
same,"sUA < 6 mg/dL, %",[15],(100%)
same,"sUA observed, mean",[15],0.30 mg/dL
same,"sUA observed, median",[15],0.30 mg/dL
same,"sUA < 6 mg/dL, %",[16],(100%)
same,"sUA observed, mean",[16],0.30 mg/dL
same,"sUA observed, median",[16],0.30 mg/dL
same,"sUA < 6 mg/dL, %",[17],(100%)
same,"sUA observed, mean",[17],0.30 mg/dL
same,"sUA observed, median",[17],0.30 mg/dL
same,"sUA < 6 mg/dL, %",[18],(100%)
same,"sUA observed, mean",[18],0.30 mg/dL
same,"sUA < 6 mg/dL, %","Month 6 sUA responders, Week 8 - Pre-Infusion, n=11",(100%)
same,"sUA < 6 mg/dL, %",[19],(100%)
same,"sUA observed, mean",[19],0.30 mg/dL
same,"sUA observed, median",[19],0.30 mg/dL
same,"sUA < 6 mg/dL, %",[20],(100%)
same,"sUA observed, mean",[20],0.30 mg/dL
same,"sUA < 6 mg/dL, %",[21],(100%)
same,"sUA observed, mean",[21],0.30 mg/dL
same,"sUA observed, median",[21],0.30 mg/dL
same,"sUA < 6 mg/dL, %",[22],(100%)
same,"sUA observed, mean",[22],0.30 mg/dL
same,"sUA observed, median",[22],0.30 mg/dL
same,"sUA < 6 mg/dL, %",[23],(100%)
same,"sUA observed, mean",[23],0.30 mg/dL
same,"sUA observed, median",[23],0.30 mg/dL
same,"sUA < 6 mg/dL, %",[24],(100%)
same,"sUA observed, mean",[24],0.30 mg/dL
same,"sUA observed, median",[24],0.30 mg/dL
same,"sUA < 6 mg/dL, %",[25],(100%)
same,"sUA observed, mean",[25],0.30 mg/dL
same,"sUA observed, median",[25],0.30 mg/dL
same,"sUA < 6 mg/dL, %",[26],(100%)
same,"sUA observed, mean",[26],0.30 mg/dL
same,"sUA observed, median",[26],0.30 mg/dL
same,"sUA < 6 mg/dL, %",[27],(100%)
same,"sUA observed, mean",[27],0.30 mg/dL
same,"sUA observed, median",[27],0.30 mg/dL
same,"sUA < 6 mg/dL, %",[28],(100%)
same,"sUA observed, mean",[28],0.30 mg/dL
same,"sUA observed, median",[28],0.30 mg/dL
same,"sUA < 6 mg/dL, %",[29],(100%)
same,"sUA observed, mean",[29],0.30 mg/dL
same,"sUA observed, median",[29],0.30 mg/dL
same,"sUA < 6 mg/dL, %",[30],(100%)
same,"sUA observed, mean",[30],0.30 mg/dL
same,"sUA observed, median",[30],0.30 mg/dL
same,"sUA < 6 mg/dL, %",[31],(100%)
same,"sUA observed, mean",[31],0.30 mg/dL
same,"sUA observed, median",[31],0.30 mg/dL
same,"sUA < 6 mg/dL, %",[32],(100%)
same,"sUA observed, mean",[32],0.30 mg/dL
same,"sUA observed, median",[32],0.30 mg/dL
same,"sUA < 6 mg/dL, %",[33],(100%)
same,"sUA observed, mean",[33],0.30 mg/dL
same,"sUA observed, median",[33],0.30 mg/dL
same,"sUA < 6 mg/dL, %",[34],(100%)
same,"sUA observed, mean",[34],0.30 mg/dL
same,"sUA observed, median",[34],0.30 mg/dL
same,"sUA < 6 mg/dL, %",[35],(100%)
same,"sUA observed, mean",[35],0.30 mg/dL
same,"sUA observed, median",[35],0.30 mg/dL
same,"sUA < 6 mg/dL, %",[36],(100%)
same,"sUA observed, mean",[36],0.30 mg/dL
same,"sUA observed, median",[36],0.30 mg/dL
same,"sUA < 6 mg/dL, %",[37],(100%)
same,"sUA observed, mean",[37],0.30 mg/dL
same,"sUA observed, median",[37],0.30 mg/dL
same,"sUA < 6 mg/dL, %",[38],(100%)
same,"sUA observed, mean",[38],0.30 mg/dL
same,"sUA observed, median",[38],0.30 mg/dL
same,"sUA < 6 mg/dL, %",[39],(100%)
same,"sUA observed, mean",[39],0.30 mg/dL
same,"sUA observed, median",[39],0.30 mg/dL
same,"sUA < 6 mg/dL, %",[40],(100%)
same,"sUA observed, mean",[40],0.30 mg/dL
same,"sUA observed, median",[40],0.30 mg/dL
same,"sUA < 6 mg/dL, %",[41],(100%)
same,"sUA observed, median",[41],0.30 mg/dL
same,"sUA < 6 mg/dL, %",[42],(100%)
same,"sUA observed, mean",[42],0.30 mg/dL
same,"sUA observed, median",[42],0.30 mg/dL
same,"sUA observed, median","Month 6 sUA responders, Week 36 - Pre-Infusion, n=9",0.30 mg/dL
same,"sUA < 6 mg/dL, %",[43],(100%)
same,"sUA observed, median",[43],0.30 mg/dL
same,"sUA < 6 mg/dL, %",[44],(100%)
same,"sUA observed, mean",[44],0.30 mg/dL
same,"sUA observed, median",[44],0.30 mg/dL
same,"sUA < 6 mg/dL, %",[45],(100%)
same,"sUA observed, mean",[45],0.30 mg/dL
same,"sUA observed, median",[45],0.30 mg/dL
same,"sUA < 6 mg/dL, %",[46],(100%)
same,"sUA observed, median",[46],0.30 mg/dL
same,"sUA < 6 mg/dL, %","Month 6 sUA responders, Week 46 - Pre-Infusion, n=2",(100%)
